Test results from PubChem BioAssay (NCATS).
The inconclusive results got no clear call from the source; some entries with a clear call stand among them for comparison. Where the call is inconclusive, the potency comes from a doubtful curve fit. The source made the active and inactive calls. The call rests on the fitted dose curve; in most records, active means well fitted inhibition curve with a large enough effect; inconclusive means small, poorly fitted or top-dose-only effect; inactive means no such curve, though single readings can be large or run the other way.

Target: Retinaldehyde dehydrogenase 3 (Homo sapiens) (UniProt P47895)
Assay: qHTS for Inhibitors of the Aldehyde Dehydrogenase Family (ALDH1A3) Primary screen (AID 2061315)
Conditions: ALDH inhibition qHTS; series mostly up to 56 µM
Potency means the concentration at half of the fitted maximal effect; tags describe the fitted curve by direction and shape.

SMILES | Potency
CS(=O)(=O)c1cccc(-c2csc(N3CCC(C(N)=O)CC3)n2)c1 | inconclusive: 14.1 µM [inhibitor, partial curve, poor fit]
Cc1ccnc(NC(=S)N2CCN(c3ccc(Br)cc3)CC2)c1 | inconclusive: 0.794 µM [inhibitor, full curve, poor fit]
Cc1nc(NCc2ccccc2)c2nc(-c3ccccc3)n(C(C)CN(C)C)c2n1 (stereo not given) | inactive
CS(=O)(=O)Nc1ccc(-c2nc(NCc3ccc(-c4ccnc(C(F)(F)F)c4)cc3)c3ccccc3n2)cc1 | inactive
CC(C)c1ccccc1-c1nccc(NCc2ccc(-c3cccnc3)cc2)n1 | inconclusive: 1.26 µM [inhibitor, full curve, poor fit]
CC1CCC2C(C(=O)O)=COC(O[C@@H]3O[C@H](CO)[C@@H](O)[C@H](O)[C@H]3O)C12 (stereo not given in full) | inconclusive: 20 µM [inhibitor, partial curve, poor fit]
C=C1CCC2[C@](C)(CO)CCC[C@@]2(C)[C@@H]1CCC1=CCOC1=O (stereo not given in full) | inconclusive: 2.51 µM [inhibitor, full curve, poor fit]
COc1cccc(C2c3c(ncn(-c4ccc(F)cc4)c3=N)Oc3ccc4ccccc4c32)c1 (stereo not given) | inactive
CC1(C)OC(=O)CC(O)C2(C)C1CC(=O)C1(C)C2C(O)CC2(C)C(c3ccoc3)OC(=O)C3OC321 (stereo not given) | inconclusive: 12.6 µM [inhibitor, partial curve, poor fit]
C=C1C2(C)CC3C4(C)OC(C5OC56C4=CC(=O)OC6(C)C)C3(C)C13C(=O)OC(C)C3(O)C2=O (stereo not given) | inactive
N#Cc1ccc(C[C@H](C(=O)O)N2C(=O)c3ccc(C(=O)O)cc3C2=O)cc1 | inactive
CC(C)(C)OC(=O)N1CCN(c2ccc(NCc3ccoc3-c3ccc(C#N)cc3)cc2)CC1 | inconclusive: 7.94 µM [inhibitor, partial curve]
COC(=O)CC(C)(O)CC(=O)OCc1ccc(O[C@@H]2O[C@H](CO)[C@@H](O)[C@H](O)[C@H]2O)cc1 (stereo not given in full) | inactive
COc1cc(OC)c(C(CC(=O)N2CC(C)CC(C)C2)c2ccc3c(c2)OCO3)c(OC)c1 (stereo not given) | inconclusive: 28.2 µM [inhibitor, single point]
CCCCCCOC(=O)/N=C(\N)c1ccc(NCc2nc3cc(C(=O)N(CCC(=O)OCC)c4ccccn4)ccc3n2C)cc1 | inactive
